Test results reported in PubChem BioAssay AID1457 (National Center for Advancing Translational Sciences (NCATS), 2008).
Hit rate of the full screen: of about 210,000 compounds, about 730 (0.35%) were called active. The inconclusive results got no clear call from the source; some entries with a clear call stand among them for comparison. Calls come from the whole dose curve; as a rule, active = well fitted inhibition curve with a large enough effect; inconclusive = small, poorly fitted or top-dose-only effect; inactive = no such curve, though single readings can be large or run the other way. Where the call is inconclusive, the potency comes from a doubtful curve fit.

assay: qHTS Assay for Identifying the Cell-Membrane Permeable IMPase Inhibitors: Potentiation with Lithium; conditions: CHO-M1 cells, IP1 TR-FRET (IP-One), carbachol + lithium; series mostly up to 59.4 µM; activity, negative = IMPase inhibition: at the top concentration; note: nearly all actives have a fitted effect of over 50% in size;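 for activity, negative = IMPase inhibition: plate controls were basal vehicle for no effect and high inhibitor control for full effect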
Outline: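 Readout is a homogeneous TR-FRET IP1 immunoassay (Ex 320, Em 665 and 620), where raised cytosolic IP1 lowers signal. Cells were CHO-M1 treated 30 min at 37C with test compounds plus a little lithium; AC50 values came from Hill-equation fitting.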
Potency is the fitted concentration of half-maximal effect.

activity, negative = IMPase inhibition, inactive:
Cc1ccc([N+](=O)[O-])c(OCCN2CCC(Cc3ccccc3)CC2)c1 18.6%, O=c1c2[nH]c3ccccc3c2ncn1CCCn1ccnc1 15.1% [at 38.3 µM], N#Cc1c(Cl)nsc1NC(=O)c1ccccc1 27.6%, CC(C)=CCc1c(O)cc(O)c2c1O[C@H](c1ccccc1)CC2=O 1.59%, CCC(C(=O)N1CCN(c2ccccc2OC)CC1)c1ccccc1 (stereo not drawn) 12.6%, O=C(CCc1nc(-c2ccccc2)no1)NC1CCCCC1 18.4% [at 38.3 µM], Cc1ccc(-c2c(C)n([O-])c3c([n+]2=O)CCCCC3)cc1 -5.99%, COc1cc(S(=O)(=O)NCc2ccccn2)c(OC)cc1Cl 1.61%, Nc1ccc(O)cc1C(=O)OCC(=O)C12CC3CC(CC(C3)C1)C2 -8.21% [at 38.3 µM], O=C(COC(=O)c1n[nH]c2ccccc12)NC(=O)NC1CCCCC1 -0.696% [at 38.3 µM], CC(=O)N1N=C(c2ccncc2)CC1c1ccccc1O (stereo not drawn) 14.8%, Cc1c(C(=O)O)cccc1[N+](=O)[O-] -5.39%, COCCCn1c(SCC(=O)Nc2ccc(C(=O)OC)cc2)nc2ccccc2c1=O 7.13% [at 38.3 µM], COc1cccc(/C=N/Nc2ncnc3c2ncn3Cc2ccccc2)c1O 20.3%, Cc1ccc(-c2nc3cnccn3c2Nc2c(C)cccc2C)o1 -4.13% [at 38.3 µM], CC(C)CN1CC[C@@]2(CCCN(S(=O)(=O)c3ccccc3)C2)C1 15.8%, COC(=O)/C=C/c1ccsc1NC(C)=O -6.67%, CCOc1ccc(NCc2nc3ccccc3n2CCOc2ccccc2)cc1 12.4%, CCCCC[C@H](O)/C=C/C=C\C=C\[C@@H](O)C/C=C\CCCC(=O)O 17.2%, COc1ccccc1C1CC(c2c(-c3ccccc3)c3cc(Cl)ccc3[nH]c2=O)=NN1S(C)(=O)=O (stereo not drawn) -6.71% [at 38.3 µM], CN(C)CCn1nnc2c(=O)oc3ccccc3c21 7.04%, Cc1ccc2cc(C(c3nnnn3C3CCCC3)N(Cc3ccccc3)Cc3ccco3)c(=O)[nH]c2c1 (stereo not drawn) 8.48% [at 38.3 µM], NC1=NC(=O)/C(=C/c2cn(CCC(=O)O)nc2-c2ccc(Cl)cc2)S1 4.1%, Cc1ccc(C)c(N2CCN(C(=O)C3CCN(S(=O)(=O)c4cccc5nsnc45)CC3)CC2)c1 17.9% [at 38.3 µM], COCCn1c(C)cc(C2=NNC(=Nc3ccccc3F)SC2)c1C -2.55% [at 38.3 µM], CS/C(=N\S(=O)(=O)c1ccc(Cl)cc1)c1ccccc1 8.88%, NC(=O)CCCCC(N)=O 15.4%, Clc1cccc(Nc2ncnc3c2cnn3-c2ccccc2)c1 41.6% [at 38.3 µM], Cc1cc(C)nc(NS(=O)(=O)c2ccc(Br)s2)c1 3.46% [at 38.3 µM], Cn1c(=O)c2[nH]c(CCC(=O)O)nc2n(C)c1=O -1.29%, O=C(CC1Sc2ncnn2C1=O)Nc1ccc(Br)cc1 (stereo not drawn) 22.7% [at 38.3 µM], COc1cc(CNc2ccc(N3CCN(C(C)=O)CC3)cc2)ccc1OCc1ccccc1 23.2%, CCCS(=O)(=O)N1CCN=C1SCc1cccc(C)c1 4.92%

Potency, active:
CC(=O)Nc1cc2ccc(OC(C)=O)cc2oc1=O 8.91 µM, CC(=O)c1sc(Nc2ccccn2)nc1C 14.1 µM, N#Cc1nc(-c2cccs2)oc1N1CCOCC1 11.2 µM, Cn1c(C(=O)N2CCN(C(=O)c3ccco3)CC2)cc2c(=O)n3ccccc3nc21 10 µM, O=C(O)c1ccccc1Sc1ncnc2sc3c(c12)CCC3 8.91 µM, O=C(Nc1nnc(C2CC2)s1)c1cc2c(s1)CCCCCC2 10 µM

Potency, inconclusive:
O=C(CSc1ncnc2c1sc1ccccc12)Nc1ccc(Br)cc1 28.2 µM [inhibitor, single point], N#Cc1cc2c(nc1SCc1ccccc1)CCC2 28.2 µM [inhibitor, single point], COc1ccc(/C(O)=C2/C(=O)C(=O)N(Cc3cccnc3)C2c2ccco2)cc1OC (stereo not drawn) 11.2 µM [inhibitor, partial curve], COc1ccc(C(=O)Nc2nnc(CCS(=O)(=O)c3ccc(C)cc3)s2)cc1 14.1 µM [inhibitor, single point], CCOC(=O)/C(C#N)=C/c1cc2ccccc2nc1N1CCOCC1 20 µM [inhibitor, single point], O=C(CSc1nnc(-c2ccncc2)o1)c1ccc2c(c1)OCCO2 11.2 µM [inhibitor, partial curve], O=C(Nc1ccc(NC(=O)c2sc3ccccc3c2Cl)cc1Cl)c1ccco1 22.4 µM [inhibitor, single point], O=c1c2ccc(Cl)cc2[nH]c(=S)n1CCC1=CCCCC1 28.2 µM [inhibitor, single point], CC(OC(=O)c1snc(C(=O)NC2CCCCC2)c1N)C(=O)NC1CCCCC1 (stereo not drawn) 7.08 µM [inhibitor, partial curve], CCCNC(=O)C(=O)N/N=C/c1cccs1 11.2 µM [inhibitor, single point], Cc1ccc2sc3ccc(NC(=O)c4ccccc4Cl)cc3c(=O)c2c1 10 µM [inhibitor, partial curve], COc1cc(C2/C(=C(\O)c3ccc4c(c3)CC(C)O4)C(=O)C(=O)N2CCCn2ccnc2)ccc1O (stereo not drawn) 11.2 µM [inhibitor, single point], N#Cc1cc2c(nc1SCC(=O)Nc1sc3c(c1C#N)CCC3)CCC2 25.1 µM [inhibitor, single point], Cc1cc2oc(=O)cc(CN3CCCc4ccccc43)c2cc1C 28.2 µM [inhibitor, single point], CCc1[nH]nc2c1C1(CCOC1C)C(C#N)=C(N)O2 (stereo not drawn) 25.1 µM [inhibitor, single point], Cc1ccccc1OCC(=O)Nc1ccc2c(c1)C(=O)c1ccccc1C2=O 28.2 µM [inhibitor, single point], CCOC(=O)c1c(NC(=O)Cc2cccs2)sc(C(=O)NC2CCCCC2)c1C 28.2 µM [inhibitor, single point], OC[C@@H]1[C@@H](c2ccccc2)C(c2ccccc2)=NN1c1ccccc1 10 µM [inhibitor, single point], c1ccc2c(c1)ncn2-c1ccc(-c2ccnc(-c3ccncc3)n2)cc1 28.2 µM [inhibitor, single point], Cc1nc2ccccn2c1/C(O)=C1\C(=O)C(=O)N(CCCn2ccnc2)C1c1ccncc1 (stereo not drawn) 12.6 µM [inhibitor, single point], Cc1cc(C)cc(-n2c(=O)c3sccc3n(CC(=O)NCc3ccco3)c2=O)c1 28.2 µM [inhibitor, single point], COC(=O)Cc1c(C(=O)OC)nnn1-c1ccc(OC)cc1 3.55 µM [inhibitor, single point], COc1ccccc1Nc1nc(N)nc(-c2oc3ccccc3c2C)n1 15.8 µM [inhibitor, single point], Cc1c(NC(=O)COC(=O)c2cc3c4ccccc4n(C)c3s2)c(=O)n(-c2ccccc2)n1C 0.355 µM [inhibitor, full curve, poor fit], COc1ccc2c(c1)S/C(=C\C(=O)c1ccncc1)N2C 28.2 µM [inhibitor, single point], CCOC(=O)c1c(NC(=O)c2ccco2)n(C2CCCCC2)c2nc3ccccc3nc12 10 µM [inhibitor, partial curve], CCOc1cc2[nH]c(=S)n(CCCCC(=O)NCc3ccco3)c(=O)c2cc1OCC 12.6 µM [inhibitor, single point], N#CCCn1c(=O)c(-c2ccc(Cl)cc2)nc2cnc(Oc3ccccc3)nc21 12.6 µM [inhibitor, single point], CCc1cc2cc(C)cc(C)c2nc1SCC(=O)NNC(=O)c1ccco1 22.4 µM [inhibitor, single point], Oc1c(Br)cc(C=Nc2ccc3nc(-c4ccccc4)[nH]c3c2)c(O)c1Br 11.2 µM [inhibitor, single point], O=C(COc1ccccc1)NCC(=O)N/N=C/c1cccs1 10 µM [inhibitor, partial curve, poor fit], Cc1ccccc1COc1ccc(/C(O)=C2/C(=O)C(=O)N(CCCn3ccnc3)C2c2ccco2)cc1 (stereo not drawn) 7.94 µM [inhibitor, partial curve, poor fit], COC(=O)c1ccc(C2/C(=C(/O)c3ccc(OC)cc3)C(=O)C(=O)N2Cc2ccco2)cc1 (stereo not drawn) 11.2 µM [inhibitor, partial curve], O=C(CN1CCCCC1)Nc1c2c(nc3ccccc13)N(c1ccccc1)CC2 28.2 µM [inhibitor, single point], CCn1c(=O)cc(SCC(=O)Nc2ccc3c(c2)OCCO3)c2ccccc21 10 µM [inhibitor, partial curve], CCOc1ccc(NC(=O)c2cn(-c3ccc(OCC)cc3)c(=O)c3cc(OC)c(OC)cc23)cc1 31.6 µM [inhibitor, partial curve], CCOc1ccccc1-c1nc(C(N)=O)c2[nH]c(=O)n(-c3ccc(F)cc3)c2n1 22.4 µM [inhibitor, single point], Cc1cc(C(=O)Cn2nc(C(=O)O)c3ccccc3c2=O)c(C)n1CC(F)(F)F 28.2 µM [inhibitor, single point], COc1ccc(C2C(C(=O)c3ccco3)=C(O)C(=O)N2CCc2ccccc2)cc1OC (stereo not drawn) 11.2 µM [inhibitor, single point]
